From the supplement of paper PMC12217912
The list shows a part of the results. The full chains were built here from the parent and the listed change. Values near 0.05 are background.

B1: TEV protease; numbered along this chain (parent)
chain: MGESLFKGPRDYNPISSSICHLTNESDGHTTSLYGIGFGPFIITNKHLFRRNNGTLVVQSLHGVFKVKDTTTLQQHLVDGRDMIIIRMPKDFPPFPQKLKFREPQREERICLVTTNFQTKSMSSMVSDTSCTFPSGDGIFWKHWIQTKDGQCGSPLVSTRDGFIVGIHSASNFTNTNNYFTSVPKNFMELLTNQEAQQWVSGWRLNADSVLWGGHKVFMVKPEEPFQPVKEATQL

Variants of: B1
Experiment: raw area under fraction-flipped curve 0-4 h after induction (AUC4h, not background-subtracted), DNA-recorder readout of cleavage of the substrate (dimensionless); higher = more cleavage of the substrate by the protease variant
Conditions: temperature: 34 °C; time window: 0-4 h after rhamnose induction
Protocol: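 In vivo DNA recorder in E. coli TOP10(DE3) ΔrhaA at 34 °C. Each TEVp single-site mutant (parent TEVp 0) is paired with a single-site variant of the 7-mer TEVs (canonical ENLYFQ|S). The substrate sits between flexible linkers in a Bxb1-sfGFP-TEVs-SsrA fusion, so cleavage stabilises Bxb1 and speeds flipping of a recombination array, read by NGS. The value is the raw area under the fraction-flipped curve over 0-4 h after rhamnose induction (AUC4h), with ≥20 reads per time point. It is not background-subtracted; inactive controls average about 0.047.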
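Further: Bxb1 expression induced with 0.2% (w/v) L-rhamnose at OD600 near 0.5, cultures sampled hourly, flipped fraction per protease–substrate barcode pair counted by paired-end Illumina sequencing.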

| Variant | area with substrate ENAYFQS | area with substrate ENCYFQS | area with substrate ENEYFQS | area with substrate ENFYFQS | area with substrate ENGYFQS | area with substrate ENHYFQS | area with substrate ENKYFQS | area with substrate ENMYFQS | area with substrate ENNYFQS | area with substrate ENQYFQS | area with substrate ENRYFQS | area with substrate ENVYFQS | area with substrate ENYYFQS | area with substrate ENDYFQS | area with substrate ENSYFQS | area with substrate ENTYFQS | area with substrate ENPYFQS | area with substrate ENIYFQS | area with substrate ENWYFQS |
| --- | --- | --- | --- | --- | --- | --- | --- | --- | --- | --- | --- | --- | --- | --- | --- | --- | --- | --- | --- |
| MGESLFKGPRDYNPISSSICHLTNESDGHTTSLYGIGFGPFIITNKHLFRRNNGTLVVQSLHGVFKVKDTTTLQQHLVDGRDMIIIRMPKDFPPFPQKLKFREPQREERICLVTTNFQTKSMSSMVSDTSCTFPSGDGIFWKHWIQTKDGKCGSPLVSTRDGFIVGIHSASNFTNTNNYFTSVPKNFMELLTNQEAQQWVSGWRLNADSVLWGGHKVFMVKPEEPFQPVKEATQL [Q151K] | 0.0667 | 0.0618 | 0.0677 | 0.0655 | 0.0584 | 0.0574 | 0.0777 | 0.0534 | 0.0921 | 0.0681 | 0.0314 | 0.0702 | 0.0485 |  |  |  |  |  |  |
| MGESLFKGPRDYNPISSSICHLTNESDGHTTSLYGIGFGPFIITNKHLFRRNNGTLVVQSLHGVFKVKDTTTLQQHLVDGRDMIIIRMPKDFPPFPQKLKFREPQREERICLVTTNFQTKSMSSMVSDTSCTFPSGDGIFWKHWIQTKDGVCGSPLVSTRDGFIVGIHSASNFTNTNNYFTSVPKNFMELLTNQEAQQWVSGWRLNADSVLWGGHKVFMVKPEEPFQPVKEATQL [Q151V] | 0.0648 | 0.0647 | 0.06 | 0.0604 |  | 0.0631 |  |  | 0.0657 | 0.0642 |  | 0.0817 | 0.0523 | 0.0599 | 0.059 |  |  |  |  |
| MGESLFKGPRDYNPISSSICHLTNESDGHTTSLYGIGFGPFIITNKHLFRRNNGTLVVQSLHGVFKVKDTTTLQQHLVDGRDMIIIRMPKDFPPFPQKLKFREPQREERICLVTTNFQTKSMSSMVSDTSCTFPSGDGIFWKHWIQTKDGQCDSPLVSTRDGFIVGIHSASNFTNTNNYFTSVPKNFMELLTNQEAQQWVSGWRLNADSVLWGGHKVFMVKPEEPFQPVKEATQL [G153D] | 0.0527 |  | 0.062 | 0.0511 |  |  |  |  | 0.0573 |  | 0.048 | 0.0438 |  | 0.0687 |  | 0.0387 |  |  |  |
| MGESLFKGPRDYNPISSSICHLTNESDGHTTSLYGIGFGPFIITNKHLFRRNNGTLVVQSLHGVFKVKDTTTLQQHLVDGRDMIIIRMPKDFPPFPQKLKFREPQREERICLVTTNFQTKSMSSMVSDTSCTFPSGDGIFWKHWIQTKDGQCHSPLVSTRDGFIVGIHSASNFTNTNNYFTSVPKNFMELLTNQEAQQWVSGWRLNADSVLWGGHKVFMVKPEEPFQPVKEATQL [G153H] | 0.0415 | 0.0386 | 0.0428 | 0.0313 | 0.0349 | 0.0454 | 0.0426 |  |  | 0.0491 | 0.0364 |  |  | 0.0593 | 0.0417 |  | 0.0251 |  |  |
| MGESLFKGPRDYNPISSSICHLTNESDGHTTSLYGIGFGPFIITNKHLFRRNNGTLVVQSLHGVFKVKDTTTLQQHLVDGRDMIIIRMPKDFPPFPQKLKFREPQREERICLVTTNFQTKSMSSMVSDTSCTFPSGDGIFWKHWIQTKDGQCGEPLVSTRDGFIVGIHSASNFTNTNNYFTSVPKNFMELLTNQEAQQWVSGWRLNADSVLWGGHKVFMVKPEEPFQPVKEATQL [S154E] | 0.0542 | 0.0429 | 0.0448 |  |  |  |  |  | 0.0663 | 0.0663 |  |  |  | 0.0596 |  |  |  |  |  |
| MGESLFKGPRDYNPISSSICHLTNESDGHTTSLYGIGFGPFIITNKHLFRRNNGTLVVQSLHGVFKVKDTTTLQQHLVDGRDMIIIRMPKDFPPFPQKLKFREPQREERICLVTTNFQTKSMSSMVSDTSCTFPSGDGIFWKHWIQTKDGQCGSPAVSTRDGFIVGIHSASNFTNTNNYFTSVPKNFMELLTNQEAQQWVSGWRLNADSVLWGGHKVFMVKPEEPFQPVKEATQL [L156A] | 0.104 | 0.0544 | 0.0569 | 0.0626 | 0.0569 | 0.0602 |  |  | 0.0134 |  | 0.0544 |  |  |  | 0.0671 | 0.0463 | 0.0718 | 0.1 | 0.044 |
| MGESLFKGPRDYNPISSSICHLTNESDGHTTSLYGIGFGPFIITNKHLFRRNNGTLVVQSLHGVFKVKDTTTLQQHLVDGRDMIIIRMPKDFPPFPQKLKFREPQREERICLVTTNFQTKSMSSMVSDTSCTFPSGDGIFWKHWIQTKDGQCGSPFVSTRDGFIVGIHSASNFTNTNNYFTSVPKNFMELLTNQEAQQWVSGWRLNADSVLWGGHKVFMVKPEEPFQPVKEATQL [L156F] | 0.062 |  | 0.0569 |  | 0.0433 |  |  |  | 0.0264 | 0.0568 | 0.0728 | 0.0587 |  | 0.0647 | 0.0646 | 0.054 | 0.0647 | 0.0703 |  |
| MGESLFKGPRDYNPISSSICHLTNESDGHTTSLYGIGFGPFIITNKHLFRRNNGTLVVQSLHGVFKVKDTTTLQQHLVDGRDMIIIRMPKDFPPFPQKLKFREPQREERICLVTTNFQTKSMSSMVSDTSCTFPSGDGIFWKHWIQTKDGQCGSPLHSTRDGFIVGIHSASNFTNTNNYFTSVPKNFMELLTNQEAQQWVSGWRLNADSVLWGGHKVFMVKPEEPFQPVKEATQL [V157H] | 0.0439 | 0.0608 | 0.0417 | 0.0533 | 0.0674 | 0.0788 | 0.0594 |  | 0.0501 | 0.0473 | 0.0577 | 0.0595 |  | 0.0548 |  | 0.0488 | 0.0595 |  |  |
| MGESLFKGPRDYNPISSSICHLTNESDGHTTSLYGIGFGPFIITNKHLFRRNNGTLVVQSLHGVFKVKDTTTLQQHLVDGRDMIIIRMPKDFPPFPQKLKFREPQREERICLVTTNFQTKSMSSMVSDTSCTFPSGDGIFWKHWIQTKDGQCGSPLVCTRDGFIVGIHSASNFTNTNNYFTSVPKNFMELLTNQEAQQWVSGWRLNADSVLWGGHKVFMVKPEEPFQPVKEATQL [S158C] | 0.0835 | 0.0691 | 0.0734 |  | 0.0723 | 0.0606 |  |  | 0.0423 | 0.059 | 0.077 | 0.0733 |  | 0.0816 |  | 0.0872 | 0.0553 |  |  |
| MGESLFKGPRDYNPISSSICHLTNESDGHTTSLYGIGFGPFIITNKHLFRRNNGTLVVQSLHGVFKVKDTTTLQQHLVDGRDMIIIRMPKDFPPFPQKLKFREPQREERICLVTTNFQTKSMSSMVSDTSCTFPSGDGIFWKHWIQTKDGQCGSPLVKTRDGFIVGIHSASNFTNTNNYFTSVPKNFMELLTNQEAQQWVSGWRLNADSVLWGGHKVFMVKPEEPFQPVKEATQL [S158K] | 0.0351 |  | 0.0569 | 0.059 | 0.0528 |  | 0.0556 |  | 0.0655 | 0.0501 | 0.0927 | 0.0459 |  | 0.054 | 0.0434 | 0.0552 | 0.0399 |  |  |
